According to the supplement of paper PMC4967469:

Assays:
Experiment in all cases: Viability of human cancer cell lines after 72 h of drug (GDSC screen)
Mitomycin C = compound: CO[C@@]12[C@H](COC(N)=O)C3=C(C(=O)C(C)=C(N)C3=O)N1C[C@@H]1N[C@@H]12 [Mitomycin C]; details: top dose 16 µM
Method: (§1)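 Human cancer cell lines in 384-well plates, medium with 10% serum, drug for 72 h over a 256-fold dose range (nine 2-fold or five 4-fold steps up to the top dose). Adherent lines were fixed and stained with the nucleic acid dye Syto60, suspension lines read with resazurin; signal relative to control wells, capped at 0 and 100%. One two-parameter sigmoid per drug and line, fitted in a mixed model over all curves with the slope shared within a line.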

Roscovitine = compound: CC[C@H](CO)Nc1nc(NCc2ccccc2)c2ncn(C(C)C)c2n1 [Roscovitine]; details: top dose 16 µM; top dose inferred
Method: as §1

NVP-BHG712 = compound: Cc1ccc(C(=O)Nc2cccc(C(F)(F)F)c2)cc1Nc1nc(-c2cccnc2)nc2c1cnn2C [NVP-BHG712]; details: top dose 10.24 µM; top dose inferred
Method: as §1

Midostaurin = compound: CO[C@@H]1[C@H](N(C)C(=O)c2ccccc2)C[C@H]2O[C@]1(C)n1c3ccccc3c3c4c(c5c6ccccc6n2c5c31)C(=O)NC4 [Midostaurin]; details: top dose 0.512 µM; top dose inferred
Method: as §1

Bosutinib = compound: COc1cc(Nc2c(C#N)cnc3cc(OCCCN4CCN(C)CC4)c(OC)cc23)c(Cl)cc1Cl [Bosutinib]; details: top dose 2 µM
Method: as §1

IOX2 = compound: O=C(O)CNC(=O)c1c(O)c2ccccc2n(Cc2ccccc2)c1=O [IOX2]; details: top dose 0.1 µM; top dose inferred
Method: as §1

Cell Line | AUC (Mitomycin C) | IC50 (Mitomycin C) | AUC (Roscovitine) | IC50 (Roscovitine) | AUC (NVP-BHG712) | IC50 (NVP-BHG712) | AUC (Midostaurin) | IC50 (Midostaurin) | AUC (Bosutinib) | IC50 (Bosutinib) | AUC (IOX2) | IC50 (IOX2)
NAMALWA (Burkitt lymphoma, suspension) | 0.21 | 0.169 µM | 0.939 | > 16 µM | 0.51 | 0.68 µM | 0.981 | > 0.512 µM | 0.943 | > 2 µM | 0.986 | > 0.1 µM
NB6 (neuroblastoma, adherent) | 0.588 | 1.84 µM | 0.984 | > 16 µM | 0.946 | > 10.2 µM | 0.918 | > 0.512 µM | 0.957 | > 2 µM | 0.93 | > 0.1 µM
NB10 (neuroblastoma, adherent) | 0.198 | 0.131 µM | 0.925 | > 16 µM | 0.823 | 5.87 µM | 0.976 | > 0.512 µM | 0.988 | > 2 µM | 0.987 | > 0.1 µM
NB12 (neuroblastoma, adherent) | 0.517 | 1.13 µM | 0.973 | > 16 µM | 0.916 | > 10.2 µM | 0.923 | > 0.512 µM | 0.976 | > 2 µM | 0.977 | > 0.1 µM
NB13 (neuroblastoma, adherent) | 0.364 | 0.443 µM | 0.989 | > 16 µM | 0.865 | 7.35 µM | 0.925 | > 0.512 µM | 0.899 | > 2 µM | 0.978 | > 0.1 µM
NB14 (neuroblastoma, adherent) | 0.409 | 0.572 µM | 0.987 | > 16 µM | 0.887 | > 10.2 µM | 0.929 | > 0.512 µM | 0.96 | > 2 µM | 0.985 | > 0.1 µM
NB69 (neuroblastoma, adherent) | 0.234 | 0.189 µM | 0.989 | > 16 µM | 0.779 | 3.69 µM | 0.693 | 0.104 µM | 0.989 | > 2 µM | 0.948 | > 0.1 µM
NB(TU)1-10 (neuroblastoma, adherent) | 0.316 | 0.331 µM | 0.943 | > 16 µM | 0.626 | 1.35 µM | 0.949 | > 0.512 µM | 0.985 | > 2 µM | 0.989 | > 0.1 µM
NB-4 (acute myeloid leukaemia, suspension) | 0.049 | < 0.0625 µM | 0.912 | 15.8 µM | 0.242 | 0.138 µM | 0.916 | > 0.512 µM | 0.846 | 1.08 µM | 0.99 | > 0.1 µM
NCI-H69 (small cell lung carcinoma, suspension) | 0.575 | 1.65 µM | 0.98 | > 16 µM | 0.982 | > 10.2 µM | 0.907 | > 0.512 µM | 0.986 | > 2 µM | 0.982 | > 0.1 µM
NCI-H82 (small cell lung carcinoma, suspension) | 0.661 | 2.74 µM | 0.901 | > 16 µM | 0.974 | > 10.2 µM | 0.989 | > 0.512 µM | 0.945 | > 2 µM | 0.989 | > 0.1 µM
NCI-H187 (small cell lung carcinoma, suspension) | 0.492 | 0.948 µM | 0.934 | > 16 µM | 0.976 | > 10.2 µM | 0.988 | > 0.512 µM | 0.988 | > 2 µM | 0.987 | > 0.1 µM
NCI-H209 (small cell lung carcinoma, suspension) | 0.069 | < 0.0625 µM | 0.927 | > 16 µM | 0.937 | > 10.2 µM | 0.983 | > 0.512 µM | 0.69 | 0.446 µM | 0.98 | > 0.1 µM
NCI-H345 (small cell lung carcinoma, suspension) | 0.752 | 5.57 µM | 0.957 | > 16 µM | 0.989 | > 10.2 µM | 0.99 | > 0.512 µM | 0.99 | > 2 µM | 0.989 | > 0.1 µM
NCI-H446 (small cell lung carcinoma, semi-adherent) | 0.755 | 5.81 µM | 0.935 | > 16 µM | 0.866 | > 10.2 µM | 0.97 | > 0.512 µM | 0.986 | > 2 µM | 0.983 | > 0.1 µM
NCI-H524 (small cell lung carcinoma, suspension) | 0.592 | 1.74 µM | 0.909 | > 16 µM | 0.991 | > 10.2 µM | 0.99 | > 0.512 µM | 0.958 | > 2 µM | 0.987 | > 0.1 µM
NCI-H526 (small cell lung carcinoma, suspension) | 0.142 | 0.0819 µM | 0.922 | > 16 µM | 0.948 | > 10.2 µM | 0.906 | > 0.512 µM | 0.907 | > 2 µM | 0.989 | > 0.1 µM
NCI-H716 (large intestine, suspension) | 0.636 | 2.63 µM | 0.981 | > 16 µM | 0.878 | > 10.2 µM | 0.936 | > 0.512 µM | 0.881 | > 2 µM | 0.979 | > 0.1 µM
NCI-H720 (lung carcinoid, suspension) | 0.613 | 1.99 µM | 0.986 | > 16 µM | 0.989 | > 10.2 µM | 0.992 | > 0.512 µM | 0.992 | > 2 µM | 0.991 | > 0.1 µM
NCI-H747 (large intestine, adherent) | 0.356 | 0.366 µM | 0.949 | > 16 µM | 0.764 | 4.5 µM | 0.914 | > 0.512 µM | 0.972 | > 2 µM | 0.979 | > 0.1 µM

Cell Line | AUC (Mitomycin C) | IC50 (Mitomycin C) | AUC (Roscovitine) | IC50 (Roscovitine) | AUC (NVP-BHG712) | IC50 (NVP-BHG712) | AUC (Midostaurin) | IC50 (Midostaurin) | AUC (Bosutinib) | IC50 (Bosutinib) | AUC (IOX2) | IC50 (IOX2)
NCI-H847 (small cell lung carcinoma, adherent) | 0.372 | 0.479 µM | 0.906 | 14.4 µM | 0.817 | 4.38 µM | 0.924 | > 0.512 µM | 0.992 | > 2 µM | 0.985 | > 0.1 µM
NCI-H1092 (small cell lung carcinoma, suspension) | 0.627 | 2.24 µM | 0.954 | > 16 µM | 0.959 | > 10.2 µM | 0.976 | > 0.512 µM | 0.99 | > 2 µM | 0.983 | > 0.1 µM
NCI-H1155 (large cell lung carcinoma, suspension) | 0.401 | 0.563 µM | 0.972 | > 16 µM | 0.961 | > 10.2 µM | 0.993 | > 0.512 µM | 0.993 | > 2 µM | 0.993 | > 0.1 µM
NCI-H1304 (small cell lung carcinoma, suspension) | 0.369 | 0.422 µM | 0.905 | > 16 µM | 0.975 | > 10.2 µM | 0.939 | > 0.512 µM | 0.988 | > 2 µM | 0.984 | > 0.1 µM
NCI-H1395 (lung adenocarcinoma, adherent) | 0.609 | 2.19 µM | 0.947 | > 16 µM | 0.933 | > 10.2 µM | 0.978 | > 0.512 µM | 0.956 | > 2 µM | 0.97 | > 0.1 µM
NCI-H1417 (small cell lung carcinoma, suspension) | 0.316 | 0.275 µM | 0.982 | > 16 µM | 0.907 | > 10.2 µM | 0.973 | > 0.512 µM | 0.887 | > 2 µM | 0.979 | > 0.1 µM
NCI-H1436 (small cell lung carcinoma, suspension) | 0.6 | 1.96 µM | 0.982 | > 16 µM | 0.921 | > 10.2 µM | 0.941 | > 0.512 µM | 0.985 | > 2 µM | 0.981 | > 0.1 µM
NCI-H1581 (large cell lung carcinoma, semi-adherent) | 0.51 | 1.06 µM | 0.972 | > 16 µM | 0.955 | > 10.2 µM | 0.975 | > 0.512 µM | 0.974 | > 2 µM | 0.989 | > 0.1 µM
NCI-H1648 (lung adenocarcinoma, adherent) | 0.362 | 0.406 µM | 0.943 | > 16 µM | 0.871 | > 10.2 µM | 0.879 | > 0.512 µM | 0.94 | > 2 µM | 0.984 | > 0.1 µM
NCI-H1666 (lung adenocarcinoma, semi-adherent) | 0.557 | 1.46 µM | 0.986 | > 16 µM | 0.976 | > 10.2 µM | 0.979 | > 0.512 µM | 0.919 | > 2 µM | 0.985 | > 0.1 µM
NCI-H1694 (small cell lung carcinoma, suspension) | 0.369 | 0.437 µM | 0.962 | > 16 µM | 0.985 | > 10.2 µM | 0.969 | > 0.512 µM | 0.989 | > 2 µM | 0.966 | > 0.1 µM
NCI-H1770 (non-small cell lung carcinoma, suspension) | 0.27 | 0.244 µM | 0.977 | > 16 µM | 0.867 | 7.35 µM | 0.852 | 0.324 µM | 0.992 | > 2 µM | 0.987 | > 0.1 µM
NCI-H1836 (small cell lung carcinoma, suspension) | 0.576 | 1.65 µM | 0.962 | > 16 µM | 0.962 | > 10.2 µM | 0.983 | > 0.512 µM | 0.988 | > 2 µM | 0.986 | > 0.1 µM
NCI-H1838 (lung adenocarcinoma, adherent) | 0.387 | 0.455 µM | 0.948 | > 16 µM | 0.976 | > 10.2 µM | 0.974 | > 0.512 µM | 0.942 | > 2 µM | 0.985 | > 0.1 µM
NCI-H1869 (lung squamous cell carcinoma, adherent) | 0.617 | 2.19 µM | 0.864 | > 16 µM | 0.981 | > 10.2 µM | 0.96 | > 0.512 µM | 0.846 | 1.75 µM | 0.97 | > 0.1 µM
NCI-H1876 (small cell lung carcinoma, adherent) | 0.245 | 0.182 µM | 0.96 | > 16 µM | 0.879 | > 10.2 µM | 0.987 | > 0.512 µM | 0.987 | > 2 µM | 0.978 | > 0.1 µM
NCI-H2081 (small cell lung carcinoma, suspension) | 0.469 | 0.819 µM | 0.977 | > 16 µM | 0.989 | > 10.2 µM | 0.927 | > 0.512 µM | 0.962 | > 2 µM | 0.988 | > 0.1 µM
NCI-H2135 (non-small cell lung carcinoma, adherent) | 0.59 | 1.75 µM | 0.979 | > 16 µM | 0.719 | 2.6 µM | 0.946 | > 0.512 µM | 0.973 | > 2 µM | 0.99 | > 0.1 µM
NCI-H2141 (small cell lung carcinoma, suspension) | 0.489 | 0.934 µM | 0.941 | > 16 µM | 0.99 | > 10.2 µM | 0.952 | > 0.512 µM | 0.989 | > 2 µM | 0.99 | > 0.1 µM
NCI-H2227 (small cell lung carcinoma, semi-adherent) | 0.786 | 7.86 µM | 0.984 | > 16 µM | 0.981 | > 10.2 µM | 0.969 | > 0.512 µM | 0.986 | > 2 µM | 0.984 | > 0.1 µM

Lines with a small IC50 respond at low doses; where the fit passes the top or lowest dose, that dose stands as a limit. AUC sums up the same curve from the lowest dose to the 256-fold higher top dose; it is 1 without any effect and falls as sensitivity rises. For part of these data: A top dose marked as inferred comes from the curve model; the source does not state it.
